Here are results for 18 molecules from the supplement of paper PMC10369915.

The list shows a part of the results. No stated cut-off is given here; in the data, active = 3.2 or more and inactive = the rest. Only a few entries rise above the background.
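Further: displayed peptides selected on beads carrying the immobilized SH2 domain, with library peptides lacking any tyrosine serving as negative controls.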

In the first experiment the target is SHP2 C-SH2 domain E139D. Description: enrichment score (SH2-bound / input frequency) (ratio); bacterial display of known human phosphotyrosine sites (pTyr-Var adds point mutants) read by sequencing; higher = stronger binding; tyrosines were phosphorylated by kinases first. The conditions noted are these: peptide library: Human pTyr.
Regarding GAHKDHVYGIHNPVM [PROM1_HUMAN_852_YA], the enrichment score is inactive: 0.814.
Still for that read-out and setting: to KMKLAQQYVMTSLQQ [PTK2_HUMAN_1007] belongs inactive: 1.53; to VVLVDPEYLKERRVY [ARRB1_HUMAN_47], inactive: 0.972.
The same measure, in the same setting: as for SHDHNIPYKWTAPEA [PTK6_HUMAN_351], the figure is inactive: 0.826; as for NASLVDDYSLLAQGG [PPIP2_HUMAN_329_YA], inactive: 0.583; as for AFLKAWVYRPGEDTE [PR15A_HUMAN_434], inactive: 0.935.
The same measure, in the same setting: to NKDKANRYFSPNFKV [PTEN_HUMAN_336] belongs inactive: 1.33; to DIVDEAIYYFKANVF [ARPC3_HUMAN_47], inactive: 1.86.
Take EDPVTVEYITRAIAS [PSMA7_HUMAN_106_YA]: the enrichment score is inactive: 0.648.
Still for that read-out and setting: to GGAVAQGYVPHNALA [PTK6_HUMAN_61_YA] belongs inactive: 0.608; to SDNEPDHYRYSDTTD [PTEN_HUMAN_377], inactive: 0.841; to SVTGKAKYTLNDNRL [PLXB1_HUMAN_1732], inactive: 1.17.
As for NYSLVDDYSLLYQGG [PPIP2_HUMAN_329], the enrichment score is inactive: 0.992.
Take VLRGQPIYIQFSNHK [PTBP1_HUMAN_127]: the enrichment score was inactive: 2.48.
For TIPSQRRYVYYYSYL [PTEN_HUMAN_174], the enrichment score was inactive: 2.31.
Consider SDNEPDHYRASDTTD [PTEN_HUMAN_377_YA], for which the enrichment score was inactive: 0.808.
Consider MGLILQGYESGSEEE [PRP4B_HUMAN_140], for which the enrichment score is inactive: 1.24.
On the same count and under the same terms, as for YGPRPEEYEFLTPVE [ARHGDIB_HUMAN_153], the figure is inactive: 1.38.

The target in a further experiment is SHP2 C-SH2 domain wild-type. The experiment is described as above. The conditions noted are these: peptide library: Human pTyr.
For GAHKDHVYGIHNPVM [PROM1_HUMAN_852_YA], the enrichment score was inactive: 0.64.
In the case of KMKLAQQYVMTSLQQ [PTK2_HUMAN_1007], the enrichment score is inactive: 1.34.
Turning to VVLVDPEYLKERRVY [ARRB1_HUMAN_47], the enrichment score was inactive: 0.538.
The same measure, in the same setting: to SHDHNIPYKWTAPEA [PTK6_HUMAN_351] belongs inactive: 0.727; to NASLVDDYSLLAQGG [PPIP2_HUMAN_329_YA], inactive: 0.609; to AFLKAWVYRPGEDTE [PR15A_HUMAN_434], inactive: 0.715.
Regarding NKDKANRYFSPNFKV [PTEN_HUMAN_336], the enrichment score was inactive: 1.35.
Take DIVDEAIYYFKANVF [ARPC3_HUMAN_47]: the enrichment score is inactive: 1.65.
EDPVTVEYITRAIAS [PSMA7_HUMAN_106_YA]: the enrichment score is inactive: 0.531.
For the molecule GGAVAQGYVPHNALA [PTK6_HUMAN_61_YA], the enrichment score is inactive: 0.498.
Same read-out and setting: as for SDNEPDHYRYSDTTD [PTEN_HUMAN_377], the figure is inactive: 0.743; as for SVTGKAKYTLNDNRL [PLXB1_HUMAN_1732], inactive: 0.9; as for NYSLVDDYSLLYQGG [PPIP2_HUMAN_329], inactive: 0.745.
For VLRGQPIYIQFSNHK [PTBP1_HUMAN_127], the enrichment score was inactive: 2.51.
For TIPSQRRYVYYYSYL [PTEN_HUMAN_174], the enrichment score is inactive: 2.74.
Still for that read-out and setting: to SDNEPDHYRASDTTD [PTEN_HUMAN_377_YA] belongs inactive: 0.784; to MGLILQGYESGSEEE [PRP4B_HUMAN_140], inactive: 0.74.
As for YGPRPEEYEFLTPVE [ARHGDIB_HUMAN_153], the enrichment score is inactive: 1.28.

The target of a further experiment is SHP2 N-SH2 domain L43F. The experiment is described as above. The conditions noted are these: peptide library: Human pTyr.
For the molecule GAHKDHVYGIHNPVM [PROM1_HUMAN_852_YA], the enrichment score is inactive: 0.592.
Consider KMKLAQQYVMTSLQQ [PTK2_HUMAN_1007], for which the enrichment score was inactive: 1.25.
For VVLVDPEYLKERRVY [ARRB1_HUMAN_47], the enrichment score is inactive: 0.548.
As for SHDHNIPYKWTAPEA [PTK6_HUMAN_351], the enrichment score is inactive: 0.715.
NASLVDDYSLLAQGG [PPIP2_HUMAN_329_YA]: the enrichment score was inactive: 0.562.
For AFLKAWVYRPGEDTE [PR15A_HUMAN_434], the enrichment score is inactive: 0.645.
On the same count and under the same terms, to NKDKANRYFSPNFKV [PTEN_HUMAN_336] belongs inactive: 1.24.
Regarding DIVDEAIYYFKANVF [ARPC3_HUMAN_47], the enrichment score was inactive: 1.52.
On the same count and under the same terms, as for EDPVTVEYITRAIAS [PSMA7_HUMAN_106_YA], the figure is inactive: 0.537; as for GGAVAQGYVPHNALA [PTK6_HUMAN_61_YA], inactive: 0.592.
For SDNEPDHYRYSDTTD [PTEN_HUMAN_377], the enrichment score is inactive: 0.8.
SVTGKAKYTLNDNRL [PLXB1_HUMAN_1732]: the enrichment score was inactive: 0.972.
Same read-out and setting: to NYSLVDDYSLLYQGG [PPIP2_HUMAN_329] belongs inactive: 0.735.
On to VLRGQPIYIQFSNHK [PTBP1_HUMAN_127], for which the enrichment score was inactive: 2.48.
Same read-out and setting: to TIPSQRRYVYYYSYL [PTEN_HUMAN_174] belongs inactive: 1.93; to SDNEPDHYRASDTTD [PTEN_HUMAN_377_YA], inactive: 1.03; to MGLILQGYESGSEEE [PRP4B_HUMAN_140], inactive: 1.06.
Turning to YGPRPEEYEFLTPVE [ARHGDIB_HUMAN_153], the enrichment score is inactive: 1.22.

The target in another experiment is SHP2 N-SH2 domain T42A. The experiment is described as above. The conditions noted are these: peptide library: Human pTyr.
In the case of GAHKDHVYGIHNPVM [PROM1_HUMAN_852_YA], the enrichment score was inactive: 0.671.
KMKLAQQYVMTSLQQ [PTK2_HUMAN_1007]: the enrichment score is inactive: 1.27.
VVLVDPEYLKERRVY [ARRB1_HUMAN_47]: the enrichment score was inactive: 0.548.
The same measure, in the same setting: to SHDHNIPYKWTAPEA [PTK6_HUMAN_351] belongs inactive: 0.958; to NASLVDDYSLLAQGG [PPIP2_HUMAN_329_YA], inactive: 0.629; to AFLKAWVYRPGEDTE [PR15A_HUMAN_434], inactive: 0.58.
Turning to NKDKANRYFSPNFKV [PTEN_HUMAN_336], the enrichment score was inactive: 1.06.
Same read-out and setting: to DIVDEAIYYFKANVF [ARPC3_HUMAN_47] belongs inactive: 1.59.
The same measure, in the same setting: to EDPVTVEYITRAIAS [PSMA7_HUMAN_106_YA] belongs inactive: 0.548.
The same measure, in the same setting: as for GGAVAQGYVPHNALA [PTK6_HUMAN_61_YA], the figure is inactive: 0.521.
As for SDNEPDHYRYSDTTD [PTEN_HUMAN_377], the enrichment score is inactive: 0.756.
Turning to SVTGKAKYTLNDNRL [PLXB1_HUMAN_1732], the enrichment score was inactive: 0.949.
For the molecule NYSLVDDYSLLYQGG [PPIP2_HUMAN_329], the enrichment score is inactive: 0.596.
The same measure, in the same setting: to VLRGQPIYIQFSNHK [PTBP1_HUMAN_127] belongs inactive: 2.86; to TIPSQRRYVYYYSYL [PTEN_HUMAN_174], inactive: 2.36.
In the case of SDNEPDHYRASDTTD [PTEN_HUMAN_377_YA], the enrichment score was inactive: 1.01.
Regarding MGLILQGYESGSEEE [PRP4B_HUMAN_140], the enrichment score is inactive: 1.17.
As to YGPRPEEYEFLTPVE [ARHGDIB_HUMAN_153], the enrichment score was inactive: 0.842.

The target of another experiment is SHP2 N-SH2 domain T52S. The experiment is described as above. Conditions: peptide library: Human pTyr.
Turning to GAHKDHVYGIHNPVM [PROM1_HUMAN_852_YA], the enrichment score is inactive: 0.582.
Take KMKLAQQYVMTSLQQ [PTK2_HUMAN_1007]: the enrichment score was inactive: 1.21.
For the molecule VVLVDPEYLKERRVY [ARRB1_HUMAN_47], the enrichment score is inactive: 0.483.
On the same count and under the same terms, as for SHDHNIPYKWTAPEA [PTK6_HUMAN_351], the figure is inactive: 0.643; as for NASLVDDYSLLAQGG [PPIP2_HUMAN_329_YA], inactive: 0.528.
As for AFLKAWVYRPGEDTE [PR15A_HUMAN_434], the enrichment score was inactive: 0.798.
Still for that read-out and setting: as for NKDKANRYFSPNFKV [PTEN_HUMAN_336], the figure is inactive: 1.24; as for DIVDEAIYYFKANVF [ARPC3_HUMAN_47], inactive: 1.86; as for EDPVTVEYITRAIAS [PSMA7_HUMAN_106_YA], inactive: 0.776.
On to GGAVAQGYVPHNALA [PTK6_HUMAN_61_YA], for which the enrichment score is inactive: 0.54.
Turning to SDNEPDHYRYSDTTD [PTEN_HUMAN_377], the enrichment score is inactive: 0.769.
For SVTGKAKYTLNDNRL [PLXB1_HUMAN_1732], the enrichment score is inactive: 1.06.
As for NYSLVDDYSLLYQGG [PPIP2_HUMAN_329], the enrichment score is inactive: 0.489.
Still for that read-out and setting: to VLRGQPIYIQFSNHK [PTBP1_HUMAN_127] belongs inactive: 2.72; to TIPSQRRYVYYYSYL [PTEN_HUMAN_174], inactive: 3.08; to SDNEPDHYRASDTTD [PTEN_HUMAN_377_YA], inactive: 0.99.
For the molecule MGLILQGYESGSEEE [PRP4B_HUMAN_140], the enrichment score was inactive: 1.26.
Same read-out and setting: to YGPRPEEYEFLTPVE [ARHGDIB_HUMAN_153] belongs inactive: 1.08.

A further experiment addresses SHP2 N-SH2 domain wild-type. The description is as above. The conditions noted are these: peptide library: Human pTyr.
For GAHKDHVYGIHNPVM [PROM1_HUMAN_852_YA], the enrichment score is inactive: 0.99.
As to KMKLAQQYVMTSLQQ [PTK2_HUMAN_1007], the enrichment score was inactive: 1.82.
As to VVLVDPEYLKERRVY [ARRB1_HUMAN_47], the enrichment score is inactive: 0.592.
On to SHDHNIPYKWTAPEA [PTK6_HUMAN_351], for which the enrichment score is inactive: 0.723.
For the molecule NASLVDDYSLLAQGG [PPIP2_HUMAN_329_YA], the enrichment score was inactive: 0.515.
On to AFLKAWVYRPGEDTE [PR15A_HUMAN_434], for which the enrichment score was inactive: 0.916.
On to NKDKANRYFSPNFKV [PTEN_HUMAN_336], for which the enrichment score was inactive: 1.62.
In the case of DIVDEAIYYFKANVF [ARPC3_HUMAN_47], the enrichment score was inactive: 1.83.
As to EDPVTVEYITRAIAS [PSMA7_HUMAN_106_YA], the enrichment score was inactive: 0.74.
The same measure, in the same setting: as for GGAVAQGYVPHNALA [PTK6_HUMAN_61_YA], the figure is inactive: 0.63.
On the same count and under the same terms, to SDNEPDHYRYSDTTD [PTEN_HUMAN_377] belongs inactive: 1.14.
As for SVTGKAKYTLNDNRL [PLXB1_HUMAN_1732], the enrichment score was inactive: 1.01.
Turning to NYSLVDDYSLLYQGG [PPIP2_HUMAN_329], the enrichment score was inactive: 0.733.
As to VLRGQPIYIQFSNHK [PTBP1_HUMAN_127], the enrichment score is active: 4.07.
With TIPSQRRYVYYYSYL [PTEN_HUMAN_174], the enrichment score is inactive: 2.32.
The same measure, in the same setting: to SDNEPDHYRASDTTD [PTEN_HUMAN_377_YA] belongs inactive: 0.933; to MGLILQGYESGSEEE [PRP4B_HUMAN_140], inactive: 1.18; to YGPRPEEYEFLTPVE [ARHGDIB_HUMAN_153], inactive: 1.74.
